In PubChem BioAssay AID686979 (National Center for Advancing Translational Sciences (NCATS), 2013):
“And” between values parts separate entries of the source, which are not always exact repeats. Equal values may be shown once. Hit rate of the full screen: of about 420,000 compounds, about 50,000 (12%) were called active. The inconclusive results got no clear call from the source; some entries with a clear call stand among them for comparison. Calls follow the shape of the dose curve; as a rule, active = well fitted inhibition curve with a large enough effect; inconclusive = small, poorly fitted or top-dose-only effect; inactive = flat fitted curve, though single readings scatter. Potencies of inconclusive entries are left out as doubtful fits.
% is scaled to controls: 0 for no effect and ±100 for the full control effect; potency is read from the fitted curve at half-maximal effect; tags tell the direction and shape of the fitted curve.

Experiment: qHTS for Inhibitors of human tyrosyl-DNA phosphodiesterase 1 (TDP1): qHTS in cells in presence of CPT; also: nearly all actives have a fitted effect of over 55% in size
Conditions: chicken DT40 Tdp1-/-;hTDP1 cells + 20 nM CPT, ATP luminescence, 48 h; activity change, negative = growth inhibition: at 46.2 µM (top of the series) unless noted
Outline: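 Chicken DT40 Tdp1-/- cells stably complemented with human TDP1 were seeded at 400 cells/well in medium containing 20 nM camptothecin, exposed to pin-transferred compounds, and grown at 37 °C for at least 48 hr. Viability was read as ATP luminescence.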
In the case of `CCOC(=O)c1cccc(Nc2ncnc3ccccc23)c1`, the Potency is reported as inconclusive [inhibitor, single point]. For `Cc1cc(C)c(C)c(S(=O)(=O)N2CCC(C(=O)NCc3ccco3)CC2)c1C`, the “activity change, negative = growth inhibition” value was inactive: -5.93%. In the case of `COc1ccc(C(=O)N/N=C(/C)c2ccc(N3CCCCC3)cc2)cc1`, the Potency is reported as inconclusive [inhibitor, single point]. In the case of `Oc1ccc(-c2nccc(-c3ccc(Cl)cc3)n2)cc1`, the Potency is reported as inconclusive [inhibitor, single point]. For `C[C@@H]1CN([C@@H](C)CO)C(=O)CCCn2nncc2CO[C@H]1CN(C)Cc1ccncc1`, the “activity change, negative = growth inhibition” value was inactive: -13%. With `Cc1ccc(S(=O)(=O)N(CC(=O)N2CCC(C(N)=O)CC2)Cc2ccc(F)cc2)cc1` the “activity change, negative = growth inhibition” value was inactive: -23.2%. With `O=C(/C=C/c1ccc(O)c(O)c1)OCCc1ccccc1` the Potency was active: 2.59 µM and active: 2.24 µM and active: 1.46 µM. With `COc1ccc(Cl)cc1NC(=O)c1noc2c1CCCC2` the “activity change, negative = growth inhibition” value was inactive: -11.4%. For `CNC(=O)C1CCC(Cn2c(=O)c3sccc3n(CC(=O)Nc3cc(C)cc(C)c3)c2=O)CC1` (stereo not given), the Potency was inconclusive [inhibitor, partial curve]. For `COc1cccc(Cn2c(=O)c(-c3cccs3)nc3cnc(Nc4ccccc4)nc32)c1`, the “activity change, negative = growth inhibition” value was inactive: 7.17%. For `Cc1cc([N+](=O)[O-])nn1CCCC(=O)Nc1ccc2c(c1)OCO2`, the “activity change, negative = growth inhibition” value was inactive: -22.2%. In the case of `CCC(C)n1c(=N)c(C(=O)NCc2ccco2)cc2c(=O)n3cc(C)ccc3nc21` (stereo not given), the Potency is reported as inconclusive [inhibitor, single point]. With `Cc1ccc(C(C(=O)NC2CCCC2)N(C(=O)CNC(=O)c2ccco2)c2ccccc2)o1` (stereo not given) the “activity change, negative = growth inhibition” value was inactive: 6.17%. In the case of `Cc1cccn2c(=O)c3cc(C(=O)NCCN4CCOCC4)c(=N)n(CCCN4CCOCC4)c3nc12`, the “activity change, negative = growth inhibition” value is reported as inactive: -1.67%. In the case of `COc1cccc(-c2nn(C)c3sc(C(=O)NCCCN(C)Cc4ccccc4)cc23)c1`, the Potency is reported as inconclusive [inhibitor, single point]. For `CC(C)(C)CC(=O)Nc1nc(C(N)Cc2ccc(C(F)(F)F)cc2)cs1` (stereo not given), the Potency was active: 23.1 µM. In the case of `CCCC12CN3CC(C)(CN(C1)C3c1cccs1)C2=O` (stereo not given), the “activity change, negative = growth inhibition” value is reported as inactive: 10.2%. In the case of `COc1ccc(OC)c(NC(=O)C2CCN(S(=O)(=O)c3c(C)noc3/C=C/c3ccc(C)cc3)CC2)c1`, the “activity change, negative = growth inhibition” value is reported as inactive: -21.5%. For `O=C(CCc1ccc(Oc2cc([N+](=O)[O-])cc([N+](=O)[O-])c2)cc1)NC1CCCC1`, the Potency was inconclusive [inhibitor, single point]. For `CCCN1C(=O)c2[nH]nc(-c3ccc(OC)cc3)c2C1c1ccccn1` (stereo not given), the Potency was inconclusive [inhibitor, single point]. For `COc1ccc(-c2csc(NC(=O)CCn3cnc4ccccc4c3=O)n2)cc1OC`, the Potency was inconclusive [inhibitor, partial curve]. With `COc1ccc(N(CC(=O)O)S(=O)(=O)c2ccc(C)cc2)cc1Cl` the “activity change, negative = growth inhibition” value was inactive: 2.25%. For `CC(C)(C)c1nnc(NC(=O)NS(=O)(=O)c2ccccc2)s1`, the “activity change, negative = growth inhibition” value was inactive: 1.88%. In the case of `O=C(NCCN1CCC(n2c(=O)[nH]c3ccccc32)CC1)c1ccccc1Cl`, the Potency is reported as inconclusive [inhibitor, single point]. With `Cc1cccc(Cn2c(CN3CCC(C(=O)NCc4ccccc4Cl)CC3)cc3ccccc32)c1` the Potency was inconclusive [inhibitor, single point]. With `COc1ccc(Cn2c(CNS(=O)(=O)c3ccc(Cl)s3)nc3cccnc32)cc1` the Potency was inconclusive [inhibitor, single point]. In the case of `C[C@H]1CN([C@@H](C)CO)C(=O)CCCn2nncc2CO[C@@H]1CN(C)Cc1ccccc1C(F)(F)F`, the Potency is reported as active: 18.4 µM. With `COc1ccccc1CNC(=O)c1c(O)c2cc(OC)c(OC)cc2[nH]c1=O` the Potency was inconclusive [inhibitor, single point]. With `Cc1cc(C)cc(-n2ncc3c2CCCC3NC(=O)c2cc(C)oc2C)c1` (stereo not given) the Potency was inconclusive [inhibitor, single point]. In the case of `COc1cc(OC)cc(-c2nnc(NC(=O)c3ccc4c(c3)OCCO4)o2)c1`, the Potency is reported as active: 10.3 µM. With `CC(C)(C)/C(O)=C(/C#N)c1nc2ccccc2[nH]1` the Potency was inconclusive [inhibitor, single point]. With `CCCOc1cc(C)c(S(=O)(=O)NCCOC)cc1C` the Potency was active: 25.9 µM. With `Cc1ccc(N2CC(C(=O)Nc3ccc4c(c3)OCO4)CC2=O)cc1C` (stereo not given) the Potency was inconclusive [inhibitor, full curve, poor fit]. With `O=C(/C=C/c1ccc(Cl)cc1Cl)n1cccn1` the Potency was inconclusive [inhibitor, partial curve, poor fit]. For `O=C(O)c1ccccc1-c1ccccc1C(=O)NCCCO`, the “activity change, negative = growth inhibition” value was inactive: -21.2%. In the case of `Cc1cc(C)c2c(CC(=O)NNC(=O)c3ccccc3)coc2c1`, the “activity change, negative = growth inhibition” value is reported as inactive: 4.83%. With `COc1ccc2[nH]c3c(c2c1)CCN1C(=O)C(CC(=O)NCc2cccc(C(F)(F)F)c2)C[C@H](C(=O)N2CCOCC2)[C@@]31C` (stereo not given in full) the “activity change, negative = growth inhibition” value was inactive: -25.6%. For `COc1ccc(S(=O)(=O)NC2CC(C)(C)NC(C)(C)C2)cc1C(C)C`, the Potency was inconclusive [inhibitor, partial curve]. In the case of `Cc1ccc(NC(=O)CN(C)C(=O)CN2C(=O)NC(C)(c3ccccc3)C2=O)cc1` (stereo not given), the Potency is reported as inconclusive [inhibitor, partial curve]. In the case of `CC(C)Oc1ccc(CCNC(=O)C2CCC(=O)N(C3CCCCCC3)C2)cc1` (stereo not given), the Potency is reported as inconclusive [inhibitor, single point]. For `O=C(COc1ccccc1Cl)Nc1ccccc1C(=O)NC1CC1`, the Potency was active: 23.1 µM. For `CCCCN(CCCC)C(=S)N/N=C/c1c(C)[nH]n(-c2ccccc2)c1=O`, the Potency was active: 2.06 µM. In the case of `COC(=O)c1cc(OC)c(OC)cc1NC(=O)Cc1ccccc1[N+](=O)[O-]`, the Potency is reported as inconclusive [inhibitor, full curve, poor fit]. For `O=S(=O)(NC1CCCC1)c1ccc(S(=O)(=O)N(Cc2cccs2)CC2CCCO2)cc1` (stereo not given), the Potency was inconclusive [inhibitor, single point]. For `CCc1ccc(CNC(=O)C2CCN(S(=O)(=O)N3CCC4(CC3)OCCO4)CC2)cc1`, the Potency was inconclusive [inhibitor, single point]. With `O=C1N=C(N2CCOCC2)S/C1=C/c1cc2c(cc1[N+](=O)[O-])OCO2` the Potency was active: 11.6 µM. With `CCOC(=O)C1(CCCc2ccccc2)CCN(C(=O)COC)CC1` the Potency was inconclusive [inhibitor, partial curve]. For `CCOC(=O)c1[nH]c2ccc(Br)cc2c1NC(=O)CCN1CCN(C(=O)OCC)CC1`, the Potency was inconclusive [inhibitor, single point]. For `CCOC(=O)C1CCCCN1Cc1cn[nH]c1-c1ccc(F)cc1F` (stereo not given), the Potency was inconclusive [inhibitor, single point]. For `CC(=O)c1ccc(NC(=S)Nc2cccc3ccccc23)cc1`, the Potency was inconclusive [inhibitor, partial curve]. With `CCOC(=O)N/N=C/C=C/c1ccccc1` the “activity change, negative = growth inhibition” value was inactive: 3.5%. For `O=C1C=C(c2cccc3c2sc2ccccc23)C[C@@H](c2ccc(F)cc2)C1`, the Potency was inconclusive [inhibitor, partial curve, poor fit]. For `O=C(N/N=C/c1cccc(OC(=O)c2ccco2)c1)c1ccc(F)cc1`, the “activity change, negative = growth inhibition” value was inactive: 5.63%. For `COc1ccccc1NC(=O)Cn1ncc2c1-c1ccccc1OC2`, the Potency was active: 14.6 µM. For `Cc1nn(Cc2c(F)c(F)c(F)c(F)c2F)c(C)c1NC(=O)c1nn(C)cc1Br`, the Potency was inconclusive [inhibitor, single point]. For `COc1ccc(-c2nn(-c3ccccc3)cc2C(=O)Nc2nccs2)cc1OC`, the Potency was inconclusive [inhibitor, single point]. For `CCCCN1CCCCC1(C)C(=O)NCc1ccc2c(c1)OCO2` (stereo not given), the Potency was inconclusive [inhibitor, partial curve]. In the case of `O=C(c1ccc2c(=O)n(CC3CCCO3)c(=S)[nH]c2c1)N1CCN(C(=O)c2ccco2)CC1` (stereo not given), the Potency is reported as inconclusive [inhibitor, partial curve]. With `O=C(COc1ccccc1)Nc1c(C(=O)N2CCC(N3CCCCC3)CC2)oc2ccccc12` the Potency was inconclusive [inhibitor, single point]. In the case of `CS(=O)(=O)N(CC(=O)N1CCc2ccccc2C1)c1ccccc1Br`, the “activity change, negative = growth inhibition” value is reported as inactive: -13.6%. With `COc1ccc(Nc2nc(N)nc(CCl)n2)cc1` the Potency was active: 23.1 µM. With `CC1CCN(Cc2cc(=O)oc3ccc(C(C)C)cc23)CC1` the Potency was active: 25.9 µM. In the case of `COC(=O)C1=CN(c2ccc(F)cc2)C=C(C(=O)OC)C1c1ccc([N+](=O)[O-])cc1`, the Potency is reported as inconclusive [inhibitor, single point]. In the case of `CN(C)c1nc(N)nc(CSc2nnnn2-c2cccc3ccccc23)n1`, the Potency is reported as inconclusive [inhibitor, full curve, poor fit]. In the case of `COc1ccc(C(=O)NCc2nnc(SCC(=O)Nc3nc4ccccc4s3)o2)cc1`, the Potency is reported as active: 29.1 µM. In the case of `COc1ccc(-c2nc3c(c(SCC(=O)N4CCOCC4)n2)Cc2c(CO)cnc(C)c2O3)cc1`, the Potency is reported as active: 14.6 µM. In the case of `CC(=O)Nc1cc([N+](=O)[O-])ccc1N1CCOCC1`, the “activity change, negative = growth inhibition” value is reported as inactive: -0.326%. For `N#Cc1c(N2CCN(C(=O)c3ccccc3)CC2)nc(-c2ccccc2)c2c1CCCC2`, the Potency was inconclusive [inhibitor, partial curve]. With `C/C(=N\Nc1ccc([N+](=O)[O-])cc1)c1ccc(N2CCOCC2)cc1` the “activity change, negative = growth inhibition” value was inactive: 5.73%. For `CNc1ncnc2ccc(-c3ccccc3OC)cc12`, the Potency was inconclusive [inhibitor, single point].
